In publication PMC4242493 one finds binding signal (normalized occupancy) data, which are given here for 172 sequences.

This is one part of the list. The list includes weakly bound sequences.

The test concerns the target MaxL homodimer (UniProt P61244). As to the kind of experiment: universal protein-binding microarray (PBM). Particulars: PBS-based mixture, 10 nM His-tagged protein dimer, 2% milk, 200 ng/uL BSA, 50 ng/uL salmon testes DNA, 0.02% TX-100; detection with Alexa 488 anti-His …; high values mean tight binding; most listed sequences are background and not binding sites; double strand, one strand shown.
Chain of UniProt P61244 (P61244 whole entry): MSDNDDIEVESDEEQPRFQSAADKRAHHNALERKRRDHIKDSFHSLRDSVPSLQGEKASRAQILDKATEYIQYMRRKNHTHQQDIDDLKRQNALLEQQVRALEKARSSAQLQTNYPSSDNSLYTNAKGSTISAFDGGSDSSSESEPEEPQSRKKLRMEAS
With CTCTTATC, the binding signal (normalized occupancy) is 0.0773.

In the case of AACTACCG, the binding signal (normalized occupancy) turned out to be 0.0735.

In the case of ACCAAACC, the binding signal (normalized occupancy) came out at 0.073.

With CTTCAGCA, the binding signal (normalized occupancy) worked out at 0.0773.

For CACTTCGA, the binding signal (normalized occupancy) was 0.0721.

Regarding CTAACGGA, the binding signal (normalized occupancy) worked out at 0.0682.

For TGGAATAA, the binding signal (normalized occupancy) is 0.0735.

CAAAGCGG: the binding signal (normalized occupancy) is 0.0658.

On to CTTAGTGA, for which the binding signal (normalized occupancy) was found to be 0.0725.

With ACTTAACT, the binding signal (normalized occupancy) was 0.0756.

As for CCCTCCCG, the binding signal (normalized occupancy) came out at 0.0755.

Take CTCTCCTA: the binding signal (normalized occupancy) amounted to 0.0741.

Turning to ATAATCTG, the binding signal (normalized occupancy) was 0.0723.

For the sequence TACCGGCA, the binding signal (normalized occupancy) was determined as 0.0779.

Consider GATAAAAA, for which the binding signal (normalized occupancy) was 0.0813.

For GAACCTCC, the binding signal (normalized occupancy) amounted to 0.0739.

For the sequence CGCTGGGA, the binding signal (normalized occupancy) stood at 0.0693.

As for GCTGGATA, the binding signal (normalized occupancy) turned out to be 0.0758.

As to AGACGTAT, the binding signal (normalized occupancy) was 0.0799.

With ACGCGACT, the binding signal (normalized occupancy) amounted to 0.0771.

As for CTTTATGC, the binding signal (normalized occupancy) stood at 0.074.

Take ATCGGACG: the binding signal (normalized occupancy) came to 0.0722.

As to CACTTTAG, the binding signal (normalized occupancy) amounted to 0.0715.

Take CTGGGGTC: the binding signal (normalized occupancy) came to 0.0775.

For TGGATAAA, the binding signal (normalized occupancy) worked out at 0.0753.

Turning to CTATATCC, the binding signal (normalized occupancy) stood at 0.0854.

In the case of GAAAGGTA, the binding signal (normalized occupancy) came to 0.0727.

For CTCATTAA, the binding signal (normalized occupancy) was found to be 0.0808.

For the sequence GAGGTCCA, the binding signal (normalized occupancy) stood at 0.0756.

ATCTGCAG: the binding signal (normalized occupancy) stood at 0.0736.

As to ACGAAGAC, the binding signal (normalized occupancy) was determined as 0.0709.

Take ATGCTTAC: the binding signal (normalized occupancy) was determined as 0.0835.

With CAAACGGA, the binding signal (normalized occupancy) came out at 0.0706.

Regarding CGTTTCTA, the binding signal (normalized occupancy) came out at 0.0801.

Turning to GGGCGTAC, the binding signal (normalized occupancy) was found to be 0.0687.

CCACGCTA: the binding signal (normalized occupancy) turned out to be 0.0973.

Turning to TGACATAA, the binding signal (normalized occupancy) stood at 0.0787.

Regarding AATGTGAC, the binding signal (normalized occupancy) was 0.0908.

CGGGAGTA: the binding signal (normalized occupancy) came out at 0.0722.

As for GGCTCCAA, the binding signal (normalized occupancy) turned out to be 0.0662.

With AGTGTGCC, the binding signal (normalized occupancy) came to 0.082.

Take ACGTTGCG: the binding signal (normalized occupancy) came to 0.0766.

GCCCCTCC: the binding signal (normalized occupancy) was determined as 0.082.

For AAAGCCGG, the binding signal (normalized occupancy) came to 0.0657.

As to CCCGCTAA, the binding signal (normalized occupancy) came out at 0.0718.

As to CAGTGAAG, the binding signal (normalized occupancy) worked out at 0.0695.

In the case of GTTAGAAC, the binding signal (normalized occupancy) is 0.0686.

Turning to ATCGCATG, the binding signal (normalized occupancy) came out at 0.108.

For the sequence CTCCCTCA, the binding signal (normalized occupancy) is 0.073.

For the sequence GTATAGAA, the binding signal (normalized occupancy) came out at 0.0793.

For CCGACCAC, the binding signal (normalized occupancy) is 0.0807.

For CTTGGCCC, the binding signal (normalized occupancy) stood at 0.065.

Consider CGGAATAA, for which the binding signal (normalized occupancy) stood at 0.0777.

Consider AGGTTCAC, for which the binding signal (normalized occupancy) came to 0.0748.

Consider TCTACTCA, for which the binding signal (normalized occupancy) was determined as 0.0829.

As to AAAAAGGT, the binding signal (normalized occupancy) was 0.0711.

With AAATTGCG, the binding signal (normalized occupancy) turned out to be 0.0738.

For AAGTATTG, the binding signal (normalized occupancy) was found to be 0.0757.

With AGCGACAT, the binding signal (normalized occupancy) is 0.0759.

Consider CGTCATAC, for which the binding signal (normalized occupancy) amounted to 0.0813.

With AATTATCC, the binding signal (normalized occupancy) turned out to be 0.0771.

Regarding TCTGTGCA, the binding signal (normalized occupancy) amounted to 0.0797.

For the sequence GTATCGGA, the binding signal (normalized occupancy) was found to be 0.0757.

Regarding AATACTAT, the binding signal (normalized occupancy) worked out at 0.0791.

Consider TCCAAACA, for which the binding signal (normalized occupancy) was 0.0765.

As for CGTTCCAA, the binding signal (normalized occupancy) was found to be 0.0768.

Turning to GTACCAAC, the binding signal (normalized occupancy) came to 0.0697.

Turning to AGCGTACG, the binding signal (normalized occupancy) is 0.0746.

As for CCGTAAGA, the binding signal (normalized occupancy) is 0.0746.

As for AGGCACGA, the binding signal (normalized occupancy) came out at 0.0793.

Consider ATCGTAAT, for which the binding signal (normalized occupancy) was 0.0833.

Regarding AATGCAAC, the binding signal (normalized occupancy) is 0.0776.

Consider AGGTTTAA, for which the binding signal (normalized occupancy) was 0.071.

As to GAACGGTA, the binding signal (normalized occupancy) amounted to 0.077.

In the case of GAACCCAA, the binding signal (normalized occupancy) was 0.0696.

Regarding GGTAGAGA, the binding signal (normalized occupancy) is 0.0754.

On to CCATTCCG, for which the binding signal (normalized occupancy) turned out to be 0.0757.

Consider AACGAAAT, for which the binding signal (normalized occupancy) is 0.0746.

Turning to AGCATCCC, the binding signal (normalized occupancy) turned out to be 0.077.

Regarding AGATGAAT, the binding signal (normalized occupancy) is 0.0802.

For the sequence CGTCTCAA, the binding signal (normalized occupancy) turned out to be 0.0753.

With CCTTTACC, the binding signal (normalized occupancy) amounted to 0.0766.

In the case of CGTCACAA, the binding signal (normalized occupancy) was 0.0763.

For TCGTCAAA, the binding signal (normalized occupancy) amounted to 0.0736.

Take AGTCATAC: the binding signal (normalized occupancy) worked out at 0.084.

In the case of CGCGCTCC, the binding signal (normalized occupancy) was found to be 0.0756.

With CGTATGGC, the binding signal (normalized occupancy) was determined as 0.0827.

Turning to CTCCGTGC, the binding signal (normalized occupancy) came out at 0.0756.

In the case of AGAAAGAC, the binding signal (normalized occupancy) was 0.0712.

With ATCGTGTG, the binding signal (normalized occupancy) stood at 0.0889.

For CCTCGCCG, the binding signal (normalized occupancy) is 0.0725.

CAAGGGCG: the binding signal (normalized occupancy) was determined as 0.0697.

Consider AAGATAGA, for which the binding signal (normalized occupancy) came to 0.0761.

AAGTCTTG: the binding signal (normalized occupancy) was determined as 0.0729.

Consider CTGACTAA, for which the binding signal (normalized occupancy) amounted to 0.0729.

CACCTTAC: the binding signal (normalized occupancy) came to 0.0694.

AATATTTA: the binding signal (normalized occupancy) was determined as 0.0834.

In the case of GTCGCCTA, the binding signal (normalized occupancy) was 0.0701.

For AAAGACGT, the binding signal (normalized occupancy) came to 0.074.

Turning to CACGGTGG, the binding signal (normalized occupancy) stood at 0.0865.

For TAACCATA, the binding signal (normalized occupancy) was found to be 0.08.

Turning to CATCACTC, the binding signal (normalized occupancy) is 0.0774.

As to GAGGTTGC, the binding signal (normalized occupancy) turned out to be 0.0712.

Consider AATGAAGC, for which the binding signal (normalized occupancy) was determined as 0.0732.

Regarding AAATTCTA, the binding signal (normalized occupancy) was 0.0726.

CAAGTCCC: the binding signal (normalized occupancy) came to 0.0697.

Consider TACGAAGA, for which the binding signal (normalized occupancy) was determined as 0.0749.

Take ACCTTCGC: the binding signal (normalized occupancy) amounted to 0.0738.

As to AATGTCCG, the binding signal (normalized occupancy) was 0.074.

With ACTAATTC, the binding signal (normalized occupancy) came to 0.0767.

Consider TTGACCAA, for which the binding signal (normalized occupancy) came out at 0.0776.

Consider GGTTGATA, for which the binding signal (normalized occupancy) was determined as 0.0767.

AATGTCCT: the binding signal (normalized occupancy) was determined as 0.0786.

As for TCTTTGAA, the binding signal (normalized occupancy) came to 0.0741.

Take ACGCTCAG: the binding signal (normalized occupancy) came to 0.0739.

Consider AGCAACTA, for which the binding signal (normalized occupancy) was found to be 0.0716.

On to AAATACAA, for which the binding signal (normalized occupancy) amounted to 0.076.

Regarding GGCCTCCC, the binding signal (normalized occupancy) amounted to 0.0653.

With ACATAGCT, the binding signal (normalized occupancy) turned out to be 0.0762.

As to TAGGGAGA, the binding signal (normalized occupancy) worked out at 0.0748.

For the sequence CGTGGAAC, the binding signal (normalized occupancy) worked out at 0.083.

On to AGTTAATC, for which the binding signal (normalized occupancy) stood at 0.0813.

As to GCAGATAA, the binding signal (normalized occupancy) was determined as 0.0745.

For ATGACATC, the binding signal (normalized occupancy) stood at 0.0827.

With CTAGTTGC, the binding signal (normalized occupancy) turned out to be 0.0695.

ATTGGAGC: the binding signal (normalized occupancy) was determined as 0.0728.

In the case of CACATGGC, the binding signal (normalized occupancy) is 0.199.

Turning to AAGACTGG, the binding signal (normalized occupancy) worked out at 0.0734.

Turning to CCGTACCC, the binding signal (normalized occupancy) came out at 0.0759.

Take TAGTCTCA: the binding signal (normalized occupancy) was determined as 0.0752.

For CTCACTTC, the binding signal (normalized occupancy) came out at 0.0734.

For AGTAATCA, the binding signal (normalized occupancy) was 0.0795.

For CCTAGGAA, the binding signal (normalized occupancy) was determined as 0.0687.

As for CAGTCCAG, the binding signal (normalized occupancy) amounted to 0.0707.

On to ACCGAGTC, for which the binding signal (normalized occupancy) turned out to be 0.0691.

As to CACAATTA, the binding signal (normalized occupancy) was 0.0775.

Consider AAGCGCGA, for which the binding signal (normalized occupancy) amounted to 0.0749.

On to TACAGTAA, for which the binding signal (normalized occupancy) amounted to 0.0811.

Turning to CCGCCTCG, the binding signal (normalized occupancy) came out at 0.071.

Take ACGCAACC: the binding signal (normalized occupancy) came out at 0.0796.

As for CTGTCAGA, the binding signal (normalized occupancy) amounted to 0.0705.

As for ATGAAGTA, the binding signal (normalized occupancy) was determined as 0.0773.

Consider CTATCGAG, for which the binding signal (normalized occupancy) was found to be 0.0743.

For AGTGAACC, the binding signal (normalized occupancy) was 0.0749.

For AATTTCAA, the binding signal (normalized occupancy) came out at 0.0737.

For the sequence AATCAACC, the binding signal (normalized occupancy) worked out at 0.0816.

Take CGCTCACA: the binding signal (normalized occupancy) is 0.076.

On to AAGAAACA, for which the binding signal (normalized occupancy) was 0.0716.

Regarding AAATCCCT, the binding signal (normalized occupancy) is 0.074.

With GGAAAGCC, the binding signal (normalized occupancy) turned out to be 0.0677.

Take TTCGGCAA: the binding signal (normalized occupancy) is 0.0765.

Take GACTTGGA: the binding signal (normalized occupancy) is 0.0749.

Take CGTGGGAA: the binding signal (normalized occupancy) came to 0.089.

TAAATATA: the binding signal (normalized occupancy) is 0.0874.

As to AACTGCGC, the binding signal (normalized occupancy) was 0.068.

With ATTCAGTC, the binding signal (normalized occupancy) turned out to be 0.076.

Take ATCGAAAG: the binding signal (normalized occupancy) stood at 0.0707.

On to AGTTGCTC, for which the binding signal (normalized occupancy) was found to be 0.0675.

On to GTGGGACA, for which the binding signal (normalized occupancy) was determined as 0.0848.

With GACAAGCC, the binding signal (normalized occupancy) worked out at 0.0728.

Regarding GACTGGTA, the binding signal (normalized occupancy) worked out at 0.0764.

As to AGTTCCGC, the binding signal (normalized occupancy) was 0.0665.

Turning to GAGTCCGC, the binding signal (normalized occupancy) turned out to be 0.0716.

As to ACCCAATA, the binding signal (normalized occupancy) is 0.0747.

As to ATGACAAG, the binding signal (normalized occupancy) stood at 0.081.

With CCGAAGCG, the binding signal (normalized occupancy) worked out at 0.0676.

AAGGGAAC: the binding signal (normalized occupancy) stood at 0.0715.

Regarding CTACGTAC, the binding signal (normalized occupancy) came out at 0.0835.

On to GGTTTTAC, for which the binding signal (normalized occupancy) is 0.0786.

With AACGAATC, the binding signal (normalized occupancy) amounted to 0.0776.

Consider AGCCCCAC, for which the binding signal (normalized occupancy) worked out at 0.0786.

As for AAACGTGC, the binding signal (normalized occupancy) was 0.101.
